The source of these data is the supplement of paper PMC10681739.

The full ranking holds about 2,700 sequences; the median of “arbitrary fluorescence units” is about 4,100, and the highest 2% start at about 54,000. Some of the results follow.

The assay deals with T1, ETS1 (UniProt P14921).
T1 sequence: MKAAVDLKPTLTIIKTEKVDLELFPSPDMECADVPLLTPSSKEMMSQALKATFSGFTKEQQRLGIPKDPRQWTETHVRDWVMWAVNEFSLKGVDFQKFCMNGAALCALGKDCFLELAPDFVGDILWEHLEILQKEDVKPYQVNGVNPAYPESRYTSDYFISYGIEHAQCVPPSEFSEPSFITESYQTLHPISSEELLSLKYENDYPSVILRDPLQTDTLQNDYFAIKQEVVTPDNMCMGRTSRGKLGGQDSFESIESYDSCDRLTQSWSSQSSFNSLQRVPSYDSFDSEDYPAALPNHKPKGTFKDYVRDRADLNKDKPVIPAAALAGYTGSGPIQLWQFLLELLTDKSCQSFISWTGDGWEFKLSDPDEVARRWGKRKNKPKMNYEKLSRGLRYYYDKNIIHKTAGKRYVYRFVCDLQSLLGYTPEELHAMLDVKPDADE
Description: ETS1 binding intensity (PBM fluorescence) (arbitrary fluorescence units); higher = stronger binding. Particulars: ETS1 concentration 10 nM. On the procedure:
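gcPBM on wild-type 36-bp genomic probes with two neighbouring ETS1 sites (4-24 bp apart). Recombinant human ETS1 (10 nM) was detected with anti-ETS1 antibody fluorescence. Values are medians over 3 replicate spots. The probes sit in constant array flanks that are not printed.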
Take TCAGAATGTGCACAGGAAGGAAGCTCTGACTAAGCT: the ETS1 binding intensity was 528. As for CTTCACTTTATCCTGTTGGGACCAGGAAACAAAGTA, the ETS1 binding intensity stood at 562.

Sequence CTCCCCGGGAAATGTTTGTCACCACTTCCTGCCACA returned an ETS1 binding intensity of 5260. The same measure for ATGCTGCTTCCTGCCTTTCTCCTTCTTCCTGTCTCA: 19600; for GACCTGGCCAGGAAGGCCTGAGCTTCCGGGTCATCT: 1600; for GCTCCGGAAGCGGCTGCGGCCCCGACCGGAAAGCCC: 7420. Under AGGCCCTTCCGGCTCACGCGCCGTACGGAAGCGTGC stands 17100; under CGTGTGGCGTCACTTCCGGCTTCCTTCAGTCCGCTG, 39400. The sequence TAAAAACTACATTTCCCAGACTTCCTTGCAACTAGG had an ETS1 binding intensity of 188.

For the sequence GAAGCTTTGGTCTTCCGCTTTTTCCTGCCTGTATCA, the ETS1 binding intensity stood at 4070. Under ACCCCAGCCGGAAGTAGACTCCCAGGATGCAGCGGA stands 24500; under TCGGGACCCACATCCTGCCCCCATCCTGTGTACCCA, 11800. Under TGCTAGGTCATTTCCTCTCCTTTCCGCGAGACCTTC stands 8910. The same measure for ATAGGGCCGGGGCTTCCTCTTCCGGCAAGGAGGGGT: 3470; for ATATGGGTAGGACAGGAAGGAAGTGGTGTGTGGTCC: 851; for GCCAGACTTCCTTTGTTTAGAATGTGGGAAATGTCT: 12800. With TCAGTTTAATCCGGTCTGAGTTAACTTCCTGACCCA, the ETS1 binding intensity was 1290. Under CCAGGGAGGAAGTGTCGGTGTTTACAGGAAATGCAG stands 3530; under GCCCAGGAAATGGAAGCCAGAGGAAGCAGAGGGGTG, 2820; under ACGGGTGCCAGGAAGAATGCACAGGATACGGGCTTC, 379. CTAAAGGAAATCGAGTGTAATTTACAGTTTCCGCTC registered an ETS1 binding intensity of 2310. As to TTTGCAGGAAGCAGGGCTACCAGCAGCTTCCTGCGT, the ETS1 binding intensity turned out to be 1480.

ACACAGACAGGAAGCAGGGCTCACTTCCTGCACCAG came in with an ETS1 binding intensity of 10500.

As for TGACTCACTTCCTTTGCATAGAAGCGGAAACCTCCC, the ETS1 binding intensity turned out to be 13100.

CCGCGAATCCGGTGCTTTCTTGCCCCAGGAAGAAGC gave an ETS1 binding intensity of 5030. On to CCCAGCGAGAGGTTTCCTCTTCCGGCACCTGACCCC, for which the ETS1 binding intensity amounted to 4930. Under GCACCCAGCCAACTTCCTGTTTCCGCGGTAGCGCGC stands 37500; under AAAGGTGACCGGGCTTCCTTCCGGCTTGCTAAGCAG, 5790. The same measure for CTAGTGAGGAAATAGGCCAGAGAAAGGAAGTGACTT: 774; for CAGCTCCTCCAGGAAGCCCGACATCCTGGCCCACCG: 1350. Under TTCTGTTTCCTGGGCTGCAGGGGAGCAGGAAATCTG stands 5560.

As for CCTGAGTTTCCTTGTCTGGAGCTGCAGGATATTTGT, the ETS1 binding intensity stood at 800. Under ACTATGACACAGGAAATTAACAGGAAGACTTAGAGG stands 4870. The same measure for GCATTCATCCTGACCTTACTGAGGGCTTCCTGTGTT: 2280. Sequence CAATGAAGGAAATTGTGCCCTGCGACTTCCCGTAAC had an ETS1 binding intensity of 594. Under GTGGCGTGGCCAGTTTCCTTTCCGGCGCTGACAGGC stands 3040; under CTGGTTTCCTGTCAAACGATCAAAGCAGGAAATATG, 25800; under CAGTCATGGCAGGAAGAGAAGAGGAAACACCTGGGG, 604. The same measure for TTCCACTTCCGGTCTTACCCGGCTACTTCCGCTGCT: 147000; for CATGGGGATGTGGTATCAGGCGGGGCAGGAAGTCAC: 530; for GAGAGGCAGGAAGAGAGCAGAGCCGGAAGCACAAGG: 2630. With ATTGCTTCCTTTGCATATTCACCATACATCCTGCTT, the ETS1 binding intensity came out at 7340. Under AAGACAGGAAACAACAGATGCTGAAGAGGATGTGGA stands 3180; under ATTGGACACCACCGGAAACGGAAATTCACCGTCGCG, 19100. The same measure for TGGTCGGTTCTTCCTGCCTGCCTTCCTGTCCGTCGG: 8340; for GGGCCACTTTTCCGCAGGGGGCATTTCCGTCTGGCG: 1860; for GCGCTTCCGGGACGCAGGAGGCATCTGCATCCGGGG: 29000. The same measure for AAAACAGGAAGCGCCCAGTCACCACAGGAAGCATGT: 10000; for GCCTAGGGAGTGAGGAAGCAGGAAGTGAAGCCCTGA: 3590; for CTAGAAGAGACTTCCCCAACAGGATGTTGCCCAACC: 2380.

In turn, GGTTATCCGGACACAGGGAGTCTCCAGCTTCCGGCT showed an ETS1 binding intensity of 6080. Under GGACCTCCCCAGCGGAAGCGGAAGTGGCCGCCGGCA stands 12100; under GGCCAGAGCGGCAGGATGGCTTCCGGCTTCAAGAAG, 9710. Under CACCCACTTCCTGCCAGCCAGCTGCTTCCTCCTGTT stands 47800.

ACCTTAGGCATGGGAAATGACATCCTTAGATGCCCT showed an ETS1 binding intensity of 184. GACACACAGGAAGCTAACCTTGCATTTCCTCCAGGA showed an ETS1 binding intensity of 3990. Turning to AGAAATCCTGTCTTGGGAATAGCCACGCATCCTGCC, the ETS1 binding intensity was determined as 3070. Turning to GGTAGATCTCCAGGAAGCACAGGAAGTCGGTGAGCA, the ETS1 binding intensity is 3430.

The sequence AACGGCTGTATCCGGAGCCAGTGCTTCCTCAGTGCG gave an ETS1 binding intensity of 6160. The same measure for AAAAATTATTTCCGGCTCCTCCCGGAAGTGCCGAAG: 35000; for TACGGCCCGGTTTCCCGTTTCTTTCCGCTGTCGCGT: 2560. Under CGGGGAGCCAGGAAGGCAGACAGGATGTGGAGGTCA stands 2010; under TTCCCTCACTTCCTTTTCACACTTTCCTGCCAAGTG, 14700.
